In PubChem BioAssay AID686979 (National Center for Advancing Translational Sciences (NCATS), 2013):
Several values for one entry are separate records, joined by “and”; a condition that tells them apart may be missing. Equal entries are not always repeated. Out of some 420,000 compounds screened, about 50,000 (12%) were called active. Inconclusive results, whose numbers are uncertain, are shown with a selection of clear calls. Calls follow the shape of the dose curve; as a rule, active = well fitted inhibition curve with a large enough effect; inconclusive = small, poorly fitted or top-dose-only effect; inactive = flat fitted curve, though single readings scatter. A potency beside an inconclusive call is a rough fit, not a confirmed value.

Assay: qHTS for Inhibitors of human tyrosyl-DNA phosphodiesterase 1 (TDP1): qHTS in cells in presence of CPT; also: nearly all actives have a fitted effect of over 55% in size
Details: chicken DT40 Tdp1-/-;hTDP1 cells + 20 nM CPT, ATP luminescence, 48 h; activity change, negative = growth inhibition: at 46.2 µM (top of the series) unless noted
Procedure, shortened: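 Chicken DT40 Tdp1-/- cells stably complemented with human TDP1 were seeded at 400 cells/well in medium containing 20 nM camptothecin, exposed to pin-transferred compounds, and grown at 37 °C for at least 48 hr. Viability was read as ATP luminescence.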
% is scaled to controls: 0 for no effect and ±100 for the full control effect; potency is read from the fitted curve at half-maximal effect; tags tell the direction and shape of the fitted curve.

Structure (SMILES) | activity change, negative = growth inhibition | Potency
Cn1cc(C(=O)c2cccc(Cl)c2)cc1/C=N\O | inactive: 1.02% | 
Cc1cc(C)c2c(N)c(S(=O)(=O)Cc3ccccc3)sc2n1 |  | inconclusive: 29.1 µM [inhibitor, single point]
CCOC(=O)c1cccc(NC(=O)CSc2nnc(C3CCCCC3)n2CC)c1 |  | inconclusive: 29.1 µM [inhibitor, single point]
CCc1cc2c(N3CCCCC3)ncnc2s1 |  | inconclusive: 20.6 µM [inhibitor, single point]
COc1ccc(C)c(Cn2c(-c3nonc3N)nc3ccccc32)c1 |  | active: 2.59 µM
O=C1C(=O)N(C/C=C/c2ccccc2)c2ccccc21 |  | active: 0.92 µM
Oc1ccccc1CN1CCN(C(O)(c2ccccc2)c2ccccc2)CC1 |  | inconclusive: 29.1 µM [inhibitor, single point]
Cc1ccc(C(=O)NNC(=O)CCN2C(=O)C3CCCCC3C2=O)cc1 (configuration not stated) | inactive: 11% | 
COc1ccc(CN(C(=O)c2cc(=O)c3ccccc3o2)C2CCS(=O)(=O)C2)cc1 (configuration not stated) | inactive: -2.34% | 
COc1c(C)cc(C(=O)C2CCCN(C(=O)Cn3nc(C)nc3C)C2)cc1C (configuration not stated) | inactive: -0.319% | 
Cc1cccc(NC(=O)CNC(=O)CN2C(=O)NC(C)(CCC(C)C)C2=O)c1C (configuration not stated) |  | inconclusive: 16.4 µM [inhibitor, single point]
Cc1cccc(C)c1NS(=O)(=O)c1ccc2c(c1)[C@H]1C=CC[C@H]1[C@@H](c1ccc(Cl)cc1)N2 |  | active: 16.4 µM
Cc1cccc(C(=O)NCC(=O)NCC2COc3ccccc3O2)c1 (configuration not stated) | inactive: 19.8% | 
CC1CCN(c2oc(-c3cccs3)nc2S(=O)(=O)c2ccccc2)CC1 |  | inconclusive: 23.1 µM [inhibitor, single point]
CSc1cccc(NC(=S)N(Cc2ccc(C)cc2)Cc2cccnc2)c1 |  | inconclusive: 25.9 µM [inhibitor, single point]
NCCNS(=O)(=O)c1cccc2cnccc12 |  | active: 26.6 µM
COc1ccc(C(=O)NCCNc2nc3cc(C)cc(C)c3cc2C#N)nc1 | inactive: -6.61% | 
CCCCOc1ccc(S(=O)(=O)N2CCN(c3ccc(N4CCN(CC)CC4)nn3)CC2)cc1 |  | inconclusive: 25.9 µM [inhibitor, single point]
Cc1ccc(C(=O)NC(NCc2ccccc2)C(Cl)(Cl)Cl)cc1 (configuration not stated) | inactive: 2.54% | 
CC(C)=CC(=O)OCC(=O)Nc1cc(C)cc(C)c1 | inactive: 13.6% | 
NS(=O)(=O)c1ccc(N=Nc2c(O)[nH]c3ccc(Br)cc23)cc1 |  | inconclusive: 13 µM [inhibitor, partial curve]
CCc1nc(NCC2CC2)c2nnn(Cc3ccccc3)c2n1 |  | inconclusive: 5.17 µM [inhibitor, partial curve, poor fit]
CN1/C(=C\C(=O)C(F)F)C(C)(C)c2ccccc21 | inactive: -7.49% | 
O=C1C(c2ccccc2)NC(=S)N1C1CCCCC1 (configuration not stated) |  | inconclusive: 23.1 µM [inhibitor, single point]

Structure (SMILES) | activity change, negative = growth inhibition | Potency
Clc1ccc(C2[C@H]3CN(Cc4cccnc4)[C@H](c4ccccc4)C34CC2(c2ccccc2)C4)cn1 (some centres not stated) |  | inconclusive: 29.1 µM [inhibitor, single point]
COc1ccc(S(=O)(=O)N2CCSCC2)cc1 | inactive: -2.73% | 
NS(=O)(=O)c1ccc(CCNCC#Cc2ccccc2)cc1 | inactive: -6.64% | 
COc1ccc(CCNC(=O)c2cnc3sc(N4CCOCC4)nn3c2=O)cc1 |  | inconclusive: 23.1 µM [inhibitor, single point]
CC(=O)Nc1ccc(/C=C/c2ccc3cccc([N+](=O)[O-])c3n2)cc1 |  | inconclusive: 29.1 µM [inhibitor, single point]
CC(=O)Nc1ccc(NC(=O)c2ccc(-c3ccnn3C)c3ccoc23)cc1 |  | inconclusive: 29.1 µM [inhibitor, single point]
COc1ccc(-n2ccn3c(CCC(=O)N4CCN(c5cccc(C)c5C)CC4)nnc3c2=O)cc1 |  | inconclusive: 29.1 µM [inhibitor, single point]
CCN(Cc1ccccc1)c1ccccc1 | inactive: -5.84% | 
CC(=O)c1ccc(NC(=O)c2cnn3c2NC(=C2CC2)C=C3C(F)F)cc1 |  | inconclusive: 28.2 µM [inhibitor, single point]
Cc1nc2ccccc2cc1C(=O)NCc1ccccc1 |  | inconclusive: 25.9 µM [inhibitor, single point]
CO/N=C(\N)c1nonc1N | inactive: 2.46% | 
Cc1nn(C)c2c1c(-c1ccccc1)cc(=O)n2Cc1ccc(F)cc1 |  | active: 16.4 µM
C[C@H]1Cn2cnc(C(=O)Nc3cccc(Cl)c3)c2C(=O)N1 |  | inconclusive: 18.4 µM [inhibitor, partial curve]
Cc1ccc(-n2ncc3c2CC(C)(C)CC3NC(=O)CCc2cnn(C)c2)cc1 (configuration not stated) |  | inconclusive: 16.4 µM [inhibitor, partial curve, poor fit]
Cc1cc([N+](=O)[O-])ccc1NC(=O)C[n+]1ccc(N(C)C)cc1 | inactive: -7.3% | 
COc1cc2c(cc1OC)CN(C(=O)c1ccc(S(=O)(=O)N(C)c3ccccc3)cc1)CC2 |  | inconclusive: 29.1 µM [inhibitor, single point]
CN1CCN(c2ccc(NC(=O)c3ccc(-c4ccc(Br)cc4)o3)cc2)CC1 |  | inconclusive: 29.1 µM [inhibitor, single point]
CCCCCn1cnc2c(sc3nc4c(cc32)CSC(C)(C)C4)c1=O |  | inconclusive: 20.6 µM [inhibitor, single point]
S=C(NCCc1ccccc1)NCc1cccs1 | inactive: -29.1% | 
O=C(c1ccc2[nH]c(=O)c(=O)[nH]c2c1)N1CCc2ccccc21 | inactive: 18.3% | 
O=C(CSc1ccc(Cl)cc1)Nc1cccc(-c2nnc(-c3ccco3)o2)c1 |  | inconclusive: 10.3 µM [inhibitor, partial curve]
CN(C)CCCN(C(=O)c1ccc2c(c1)OCCO2)c1nc2cc3c(cc2s1)OCO3 |  | inconclusive: 16.4 µM [inhibitor, partial curve, poor fit]
Cc1cc(C)n2nc(SCC(=O)N/N=C/c3ccccc3F)nc2n1 |  | inconclusive: 18.4 µM [inhibitor, partial curve]
Fc1cccc(Cc2c(-c3ccc(Cl)cc3)nc3ccc(Br)cn23)c1 |  | inconclusive: 29.1 µM [inhibitor, single point]

Structure (SMILES) | activity change, negative = growth inhibition | Potency
Oc1ccccc1Cc1c(O)ccc2ccccc12 | inactive: -23.4% | 
COc1ccc(-n2nc3ccc(NC(=O)c4cccc(OCCC(C)C)c4)cc3n2)cc1 |  | active: 18.4 µM
CC(=O)Nc1cccc(C(=O)OC(C(=O)c2ccc(C)cc2)c2ccccc2)c1 (configuration not stated) |  | inconclusive: 20.6 µM [inhibitor, partial curve]
COc1cccc(/C=C2/C(=O)NN(c3ccc(F)cc3)C2=O)c1 |  | inconclusive: 10.3 µM [inhibitor, partial curve]
COc1cccc(Cn2c(Cn3c(-c4cnccn4)nc4ccccc43)nc3ccccc32)c1 | inactive: -15% | 
O=C(Cc1ccc(F)cc1)N1CCN(c2ccc([N+](=O)[O-])cc2)CC1 |  | active: 20.6 µM
COc1ccc(Cl)cc1NC(=O)C/C(C)=N/NC(=O)c1ccccc1Cl | inactive: -20.6% | 
COc1ccc(-n2cc(-c3ccc4c(c3)OCO4)n(CC(=O)Nc3cc(Cl)ccc3C)c2=O)cc1 |  | inconclusive: 16.4 µM [inhibitor, single point]
CN(C)C(=O)CCc1nc(-c2ccc(C(C)(C)C)cc2)no1 |  | active: 16.4 µM
COc1ccccc1CNC(=O)C(NS(=O)(=O)c1ccc2c(c1)CCN2C(C)=O)C(C)C (configuration not stated) | inactive: -2.53% | 
COCC(C)n1c(SC(C)C(=O)NC2CCCCC2C)nc2ccccc2c1=O (configuration not stated) |  | inconclusive: 18.4 µM [inhibitor, single point]
CN(CC(=O)Nc1ccc(Cl)c(C(F)(F)F)c1)C(=O)c1cnccn1 |  | inconclusive: 16.4 µM [inhibitor, partial curve]
Cc1cc2nc(C(C)(C)C)c(Cc3cccc(F)c3)n2c(C)c1Br |  | inconclusive: 18.4 µM [inhibitor, single point]
Cc1ccc(NC(=O)CCC(=O)N2Cc3ccccc3Oc3ncccc32)cc1Cl |  | active: 23.1 µM
Cc1nn(Cc2cccc(Oc3ccccc3)c2)c(C)c1NC(=O)NC12CC3CC(CC(C3)C1)C2 |  | inconclusive: 20.6 µM [inhibitor, single point]
COc1ccc(C2=NS(=O)(=O)N(C)C(C(=O)NC(C)c3ccccc3)=C2)cc1 (configuration not stated) |  | inconclusive: 29.1 µM [inhibitor, single point] and inconclusive: 20.6 µM [inhibitor, partial curve]
COc1cc(CNc2ccc(CNc3ncn[nH]3)cc2)ccc1OCC(=O)NC(C)(C)C |  | inconclusive: 20.6 µM [inhibitor, single point]
CCC(C)(C)n1nnnc1CN(Cc1cccs1)Cc1cc2cc(OC)ccc2[nH]c1=O |  | inconclusive: 16.4 µM [inhibitor, single point]
COc1ccccc1CNS(=O)(=O)c1c(C)cc(C)cc1C |  | inconclusive: 20.6 µM [inhibitor, single point]
COc1ccc([C@H]2CC(=O)C=C(c3cc(F)ccc3F)C2)cc1OC |  | inconclusive: 29.1 µM [inhibitor, single point]
O=C(c1ccc(Cl)cc1)N1CCC2CC1c1cc(-c3ccccc3)ccc12 (configuration not stated) |  | active: 16.4 µM
O=C(Cc1ccc2c(c1)OCCO2)N1CCN(S(=O)(=O)c2cccs2)CC1 | inactive: 2.59% | 
CCN1CCCC1CNCc1cccc(OC)c1OCc1ccccc1F (configuration not stated) | inactive: -19.5% | 
COc1ccc(N=c2oc3c(OC)cccc3cc2C(=O)NCc2ccco2)c(OC)c1 |  | inconclusive: 14.6 µM [inhibitor, single point]
